The supplement of paper PMC12217912
The list shows a part of the results. The full chains were built here from the parent and the listed change. Inactive controls read about 0.05.

B1: TEV protease; numbered along this chain (parent)
chain: MGESLFKGPRDYNPISSSICHLTNESDGHTTSLYGIGFGPFIITNKHLFRRNNGTLVVQSLHGVFKVKDTTTLQQHLVDGRDMIIIRMPKDFPPFPQKLKFREPQREERICLVTTNFQTKSMSSMVSDTSCTFPSGDGIFWKHWIQTKDGQCGSPLVSTRDGFIVGIHSASNFTNTNNYFTSVPKNFMELLTNQEAQQWVSGWRLNADSVLWGGHKVFMVKPEEPFQPVKEATQL

Variants of: B1
Test: raw area under fraction-flipped curve 0-4 h after induction (AUC4h, not background-subtracted), DNA-recorder readout of cleavage of the substrate (dimensionless); higher = more cleavage of the substrate by the protease variant
Conditions: temperature: 34 °C; time window: 0-4 h after rhamnose induction
Protocol: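 In vivo DNA recorder in E. coli TOP10(DE3) ΔrhaA at 34 °C. Each TEVp single-site mutant (parent TEVp 0) is paired with a single-site variant of the 7-mer TEVs (canonical ENLYFQ|S). The substrate sits between flexible linkers in a Bxb1-sfGFP-TEVs-SsrA fusion, so cleavage stabilises Bxb1 and speeds flipping of a recombination array, read by NGS. The value is the raw area under the fraction-flipped curve over 0-4 h after rhamnose induction (AUC4h), with ≥20 reads per time point. It is not background-subtracted; inactive controls average about 0.047.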
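Further: Bxb1 expression induced with 0.2% (w/v) L-rhamnose at OD600 near 0.5, cultures sampled hourly, flipped fraction per protease–substrate barcode pair counted by paired-end Illumina sequencing.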

Variant	area with substrate ANLYFQS	area with substrate CNLYFQS	area with substrate DNLYFQS	area with substrate FNLYFQS	area with substrate HNLYFQS	area with substrate INLYFQS	area with substrate LNLYFQS	area with substrate MNLYFQS	area with substrate NNLYFQS	area with substrate PNLYFQS	area with substrate RNLYFQS	area with substrate TNLYFQS	area with substrate WNLYFQS	area with substrate YNLYFQS	area with substrate GNLYFQS	area with substrate KNLYFQS	area with substrate SNLYFQS	area with substrate VNLYFQS	area with substrate QNLYFQS
MGESLFKGPRDYNPILSSICHLTNESDGHTTSLYGIGFGPFIITNKHLFRRNNGTLVVQSLHGVFKVKDTTTLQQHLVDGRDMIIIRMPKDFPPFPQKLKFREPQREERICLVTTNFQTKSMSSMVSDTSCTFPSGDGIFWKHWIQTKDGQCGSPLVSTRDGFIVGIHSASNFTNTNNYFTSVPKNFMELLTNQEAQQWVSGWRLNADSVLWGGHKVFMVKPEEPFQPVKEATQL [S16L]	0.0687	0.0642	0.0695	0.0864	0.0777	0.0495	0.0627	0.0349	0.0641	0.0641	0.0586	0.0628	0.0479	0.043	–	–	–	–	–
MGESLFKGPRDYNPIRSSICHLTNESDGHTTSLYGIGFGPFIITNKHLFRRNNGTLVVQSLHGVFKVKDTTTLQQHLVDGRDMIIIRMPKDFPPFPQKLKFREPQREERICLVTTNFQTKSMSSMVSDTSCTFPSGDGIFWKHWIQTKDGQCGSPLVSTRDGFIVGIHSASNFTNTNNYFTSVPKNFMELLTNQEAQQWVSGWRLNADSVLWGGHKVFMVKPEEPFQPVKEATQL [S16R]	0.0879	0.0792	–	0.0668	0.0666	0.0681	0.058	0.0518	0.0626	0.0718	–	0.0627	0.058	0.0633	0.0766	0.0713	0.0637	0.0714	–
MGESLFKGPRDYNPIMSSICHLTNESDGHTTSLYGIGFGPFIITNKHLFRRNNGTLVVQSLHGVFKVKDTTTLQQHLVDGRDMIIIRMPKDFPPFPQKLKFREPQREERICLVTTNFQTKSMSSMVSDTSCTFPSGDGIFWKHWIQTKDGQCGSPLVSTRDGFIVGIHSASNFTNTNNYFTSVPKNFMELLTNQEAQQWVSGWRLNADSVLWGGHKVFMVKPEEPFQPVKEATQL [S16M]	0.0607	0.0776	0.046	0.0689	0.063	0.0548	0.0667	0.0479	0.0592	0.0848	–	0.0613	0.0681	0.0595	0.07	0.0769	0.0747	0.0542	–
MGESLFKGPRDYNPIYSSICHLTNESDGHTTSLYGIGFGPFIITNKHLFRRNNGTLVVQSLHGVFKVKDTTTLQQHLVDGRDMIIIRMPKDFPPFPQKLKFREPQREERICLVTTNFQTKSMSSMVSDTSCTFPSGDGIFWKHWIQTKDGQCGSPLVSTRDGFIVGIHSASNFTNTNNYFTSVPKNFMELLTNQEAQQWVSGWRLNADSVLWGGHKVFMVKPEEPFQPVKEATQL [S16Y]	0.071	–	0.0783	0.0581	0.0597	0.0623	–	0.0593	–	0.0668	0.062	0.0811	0.064	–	–	–	–	0.0605	–
MGESLFKGPKDYNPISSSICHLTNESDGHTTSLYGIGFGPFIITNKHLFRRNNGTLVVQSLHGVFKVKDTTTLQQHLVDGRDMIIIRMPKDFPPFPQKLKFREPQREERICLVTTNFQTKSMSSMVSDTSCTFPSGDGIFWKHWIQTKDGQCGSPLVSTRDGFIVGIHSASNFTNTNNYFTSVPKNFMELLTNQEAQQWVSGWRLNADSVLWGGHKVFMVKPEEPFQPVKEATQL [R10K]	0.0452	0.0608	0.0747	0.0642	0.069	0.0311	0.0593	0.0582	–	0.0643	–	–	0.0681	0.0584	0.077	0.0445	0.0703	0.056	0.0897
MGESLFKGPSDYNPISSSICHLTNESDGHTTSLYGIGFGPFIITNKHLFRRNNGTLVVQSLHGVFKVKDTTTLQQHLVDGRDMIIIRMPKDFPPFPQKLKFREPQREERICLVTTNFQTKSMSSMVSDTSCTFPSGDGIFWKHWIQTKDGQCGSPLVSTRDGFIVGIHSASNFTNTNNYFTSVPKNFMELLTNQEAQQWVSGWRLNADSVLWGGHKVFMVKPEEPFQPVKEATQL [R10S]	0.0676	0.0622	0.0702	0.0611	0.0656	0.0409	0.0702	–	0.0579	0.069	–	0.0692	0.0559	0.0605	–	0.0658	0.101	–	–
MGEDLFKGPRDYNPISSSICHLTNESDGHTTSLYGIGFGPFIITNKHLFRRNNGTLVVQSLHGVFKVKDTTTLQQHLVDGRDMIIIRMPKDFPPFPQKLKFREPQREERICLVTTNFQTKSMSSMVSDTSCTFPSGDGIFWKHWIQTKDGQCGSPLVSTRDGFIVGIHSASNFTNTNNYFTSVPKNFMELLTNQEAQQWVSGWRLNADSVLWGGHKVFMVKPEEPFQPVKEATQL [S4D]	0.0671	0.0684	0.0867	–	0.0928	–	0.0667	0.0569	0.0735	0.0583	0.0612	0.092	0.0447	0.0649	0.0685	0.0533	0.0664	0.0556	–
MGESEFKGPRDYNPISSSICHLTNESDGHTTSLYGIGFGPFIITNKHLFRRNNGTLVVQSLHGVFKVKDTTTLQQHLVDGRDMIIIRMPKDFPPFPQKLKFREPQREERICLVTTNFQTKSMSSMVSDTSCTFPSGDGIFWKHWIQTKDGQCGSPLVSTRDGFIVGIHSASNFTNTNNYFTSVPKNFMELLTNQEAQQWVSGWRLNADSVLWGGHKVFMVKPEEPFQPVKEATQL [L5E]	0.0559	0.0691	0.122	0.056	–	–	0.0677	0.0657	0.0543	–	–	0.0649	0.0596	0.0699	0.0779	0.0812	0.0787	–	0.0814
MGESLFKFPRDYNPISSSICHLTNESDGHTTSLYGIGFGPFIITNKHLFRRNNGTLVVQSLHGVFKVKDTTTLQQHLVDGRDMIIIRMPKDFPPFPQKLKFREPQREERICLVTTNFQTKSMSSMVSDTSCTFPSGDGIFWKHWIQTKDGQCGSPLVSTRDGFIVGIHSASNFTNTNNYFTSVPKNFMELLTNQEAQQWVSGWRLNADSVLWGGHKVFMVKPEEPFQPVKEATQL [G8F]	0.0599	0.0672	–	–	0.0522	–	0.0467	0.0691	0.0727	0.063	–	0.0533	0.076	–	–	0.0268	–	0.0607	–
MGESLFKKPRDYNPISSSICHLTNESDGHTTSLYGIGFGPFIITNKHLFRRNNGTLVVQSLHGVFKVKDTTTLQQHLVDGRDMIIIRMPKDFPPFPQKLKFREPQREERICLVTTNFQTKSMSSMVSDTSCTFPSGDGIFWKHWIQTKDGQCGSPLVSTRDGFIVGIHSASNFTNTNNYFTSVPKNFMELLTNQEAQQWVSGWRLNADSVLWGGHKVFMVKPEEPFQPVKEATQL [G8K]	0.0556	–	–	–	0.0486	0.0456	0.0672	0.075	–	–	–	–	–	–	0.0618	0.0589	–	–	–
